Data published in the supplement of paper PMC11417369.
The list shows a part of the results.

What follows are sequences tested on PfSIP2 AP2 domain 1 (GST-tagged) (assay: gcPBM binding intensity (ln(normalized median fluorescence intensity)); higher = stronger DNA binding).
Method in brief: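 The highest Masliner-normalised natural-log median intensity across replicate spots of either probe orientation is reported as binding intensity. GST-tagged P. falciparum DNA-binding domains expressed in E. coli were applied for 1 h to an Agilent 4 × 180k array of primer-extended double-stranded 36-bp intergenic genomic probes plus negative controls, and bound protein was detected with Alexa488 anti-GST antibody and scanned at 488 nm.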

Point of comparison: “TATTAAACTTGACACACACACACACGCATATATAAA [CACACA_site6496]”, “gcPBM binding intensity (ln)” value 7.26. Against it:
- ATATGATCATAAAACACACACACAAAAAAAAAAAAA [CACACA_site1806] — lower, 6.97
- ATCCACTTTTTGAAGACACACACAAAAAAAAAAAAA [CACACA_site8818] — lower, 7.21
- AATTAGATGGATAAATGTACATAATGTGAATATATT [XGTACX_site86] — lower, 6.97
- TAAAAATAATTTGCATGTACATAGGTCGATGTATTT [XGTACX_site1357] — lower, 7.08
- TGTAAATTATAACGTGCACACATATTTAAAATGAAA [CACACA_site8915] — higher, 10.6
- ATATAGAAAATGCATACACACTTTATAAATATATTT [CACACA_site6553] — lower, 7.08
- AGATATTTATTGAGTGCATGTTATAAAGGGAAAAAA [TGCATGCA_site88] — higher, 10.3
- TTTTTTTTTTTTTTTTTTTTCACATGTGTGGAAAAA [GTGCAC_negctrl_site352] — higher, 7.27
- AATTTAAAATATATAGTACACACGTGAACACAAATA [CACACA_site416] — lower, 6.95
- TTAAAATATACATAAACACACACAAAACGTTTAAGA [CACACA_site8267] — lower, 6.95
- AGGATATATAAGTATACACACATATTTATATTTATA [CACACA_site6239] — lower, 6.88
- TAACAATAACTTTATACACACATAATATATATATAT [CACACA_site3543] — higher, 8.97
- TGTATTTATAATAAAACACACATTTTTAATGTGCTC [CACACA_site4908] — lower, 6.66
- CATATACTTCTGTGCACACGAATATTTTTCTTCTTC [CACACA_site1407] — higher, 8.86
- TGTTGTCCTAATTCTACACACAATGGTTTATTAAAA [CACACA_site2648] — higher, 7.39
- TTTTAACGTAAAACATTGATGATATAAAAAATAGGA [GTGCAC_negctrl_site540] — higher, 7.3
- TATACTCATATTTTTACACACATATTTTTTCATATA [CACACA_site5412] — lower, 7
- TTTGTGTTTATAAATTGTACAAAGGTGCAAGAAGAA [XGTACX_site2159] — higher, 11.2
- AAAAAAAAAAAAAACACACACACACCCATAAATATA [CACACA_site151] — lower, 7.25
- ACACAAATAAATATAACATATATATTATATTATATT [CACACA_negctrl_site710] — lower, 7.25
- TTTATATAAATTTTTTGTACACAAGTAAAAACGCGT [XGTACX_site2459] — lower, 7.21
- ATAAAATATATATATATAAAAATAAATACATAAATA [GTGCAC_negctrl_site157] — lower, 7
- CAAACAAACAGACACACACACACACCCAAAAATGAT [CACACA_site2430] — lower, 7.15
- TCAATATTAAATTATTGTACATGTATGTATATATAT [XGTACX_site3861] — higher, 7.94
- TTTTTTTTTTTTTTTTTACACACTTTATTCAAACAA [CACACA_site9360] — lower, 7.05
- AAAAAAAAAAATATATTAAAATAAAAAATATTAACA [GTGCAC_negctrl_site13] — lower, 6.69
- TACACCCACCCACATACACACACATACACATATATA [CACACA_site8503] — higher, 7.48
- CCACTTAAAATAAAAAGTACATACAGGTGTTATACA [XGTACX_site8124] — lower, 7.14
- AATAATGTTATAAATTGTACGTGTATTATTCATTAC [XGTACX_site894] — lower, 7.04
- TAATGAGGAAATACAGCACACGTTATTACACTTTTC [CACACA_site5399] — lower, 6.83
- AAATTGGTTCATCAATGTACATGTAAAATAAATCAA [XGTACX_site4795] — lower, 7.04
- TATATTTATCCATACAAGAAAAAAAAAAAAAAAATA [CACACA_negctrl_site1328] — lower, 6.82
- CAAATAAAAACAAAACGTACGAATAAATTATTGTTA [XGTACX_site5136] — lower, 6.9
- TATTTGATCTAAAGAGCATGCAAAAACGAACAAGAT [TGCATGCA_site136] — higher, 7.57
- ATATCGTTATTTTTATGTACTAAAATATTTAATTAT [XGTACX_site3516] — lower, 7.09
- CACATATAAATATTAACACACATAATGAATTATATA [CACACA_site2741] — lower, 6.94
- ATATATAAAAATTAGGTGCATTAAATTAAAATATAT — higher, 10.3
- TTTAAATAAAATATTACACACTTAGAAAGATATATA [CACACA_site7684] — lower, 6.8
- TTTTTTTTTTATTGTACATGCAAAAAATTCCACACA [TGCATGCA_site279] — higher, 8.18
- TGTATATAATCGAGTGCACACACAAAAAAAAAGTGA [CACACA_site8417] — higher, 10.4
- AAAAAAAAAAAAAAAACACACACATATATATATATA [CACACA_site8571] — higher, 9.54
- TTCATGTCCTATTAATGTACTCTACACACATATAAG [XGTACX_site899] — lower, 7.19
- TTTATTTATTTTTGTTGTACACTTGTATATATTATT [XGTACX_site6486] — lower, 7.2
- ATTTTATATACACTTTGTACTTATTTTATTCTTCTT [XGTACX_site4200] — lower, 7.05
- ATATATATATATAATACACACTAAAGTAACATAATA [CACACA_site5580] — higher, 8.56
- TACGGGAAAGATAAGAAACACACGGAAAATTAGACG [CACACA_site1661] — lower, 7.25
- TTTTTTAATACATATGCATGTTCAAGTACGAAAAAA [TGCATGCA_site641] — lower, 7.11
- TACGCAACCAAAAGTTGTACTAATTTTTTTTTTTTG [XGTACX_site7432] — lower, 6.9
- GGAACAAATAATATCACACATATATATATATATATA [CACACA_site5670] — higher, 9.5
- ATATATTTTATACATACACACATATAAATATTTTTT [CACACA_site7780] — higher, 7.27
- TAATAAATATATTGAAGTACTTATAAAAAGCAATAT [XGTACX_site6262] — higher, 7.29
- TAAAATAAAAAAGTAGTACACACTTCACGATATTTT [CACACA_site3896] — higher, 7.32
- TTAAAAGTAAGCAAAGTGCATATAACAAAAGTAAAG — higher, 8.19
- AATATAAAACTTTAGAGTACTTATCATTAAAATATA [XGTACX_site4509] — lower, 6.63
- ATTAATAATGAAAAAAAACACACGGTACATTCAAAG [CACACA_site1302] — lower, 7.22
- TTGTAAGAAAGACACACACACACATATAAATATGTA [CACACA_site6516] — lower, 6.94
- TATTTAAAATAATGTGCAAAAGAATAAATAAATAAA [TGCATGCA_negctrl_site194] — lower, 7.23
- TTCATTTTCATATATTGTACAAAATTTTATAAGGTT [XGTACX_site4522] — lower, 7.14
- TATATAAGAACTTTTACACACATGAAAATGTAGATA [CACACA_site7711] — lower, 6.78
- TATATATATATATATACACACATACAGATATATATT [CACACA_site4629] — higher, 9.79
- ATATACACATATACATGTACAAATATATATACACAT [XGTACX_site2986] — lower, 7.23
- TTACTATTATTATTTTTTATTTTTATTTTATTTATT [TGCATGCA_negctrl_site269] — lower, 6.99
- CACTAAAAGAAACACACACACACACCCATATATATA [CACACA_site4151] — higher, 7.59
- GAATATTCAACATAATGTACAAGTATTCATTTCTTT [XGTACX_site7860] — lower, 6.79
- CAAAAATAAAAGAAATGTACAAAAAATAATAAAAAA [XGTACX_site6597] — lower, 6.96
- TAATAAACTTAAAAATGTACATATATTTATTATTAC [XGTACX_site4321] — lower, 6.99
- AAAATTCATAAATACACACACGCACATATATATATA [CACACA_site4227] — higher, 9.04
- AAAAATTTTCAAGTGTGTACATATTTTCATTTAACA [XGTACX_site6186] — lower, 7.09
- AAATATATATTCATGTGTACACACAAAAAAAAATAA [XGTACX_site4552] — higher, 7.44
- AAGAAAAAGTATCCTCTATCTTTATATAAACTATTA [TGCATGCA_negctrl_site2] — lower, 6.49
- ATGTATATATTTTTATGTACATATTTTTAATTTATA [XGTACX_site2982] — lower, 6.88
- CATACATATACTTTGTGTACATATATATATTATATA [XGTACX_site97] — higher, 7.51
- TAATAAAAAATTAAAAAAAATAAAAATAAAAATAAA [GTGCAC_negctrl_site78] — lower, 6.73
- TTTATACTTTTAAATTGTACTATAAAAAGGAATACA [XGTACX_site2537] — the same, 7.26
- TTTTTATTTAGCTAAGCATGCTAACGATGACACTTC [TGCATGCA_site79] — lower, 6.88
- AAGAAAATGTATATATGTACATACAATCAAAAGAAG [XGTACX_site3454] — higher, 7.28
- AAAATATATTAAGGCACACACATACAGATATATATA [CACACA_site5951] — higher, 7.29
- TTTTTTCTTTTTTTTTTTTTTTTCTTTTTTTTTTTT [GTGCAC_negctrl_site196] — lower, 7.17
- TACATACACAAATACACACACAAATACATACCCAAA [CACACA_site4550] — higher, 7.27
- TACGTGAAATTATATACACACATAAATATGGGTGTA [CACACA_site5687] — lower, 6.79
- GGTATACTCAAGTATACACACATATATATATATATA [CACACA_site5746] — higher, 9.65
- AACAATATGGATGTATGTACACATATAGAACGTTAT [XGTACX_site7142] — lower, 7.18
- TATGCATTTATGCATTGTACTTTTATAGATTCCACC [XGTACX_site7121] — lower, 6.99
- ATATTATATATACACGCACACACACTAATATATATA [CACACA_site9092] — higher, 7.62
- GAAATTTTATTACTTTTACACACCTATATATTATTC [CACACA_site9076] — lower, 6.95
- TACAAAAAAAAAGAACGTACAAAAAATTTCAAAAAT [XGTACX_site5860] — lower, 6.91
- TTAAACTATACCAAAACACACATACAAAATATAAAA [CACACA_site5494] — lower, 7.09
- TATGTATATATATTAACACACAAAAAAAAAAAAAAA [CACACA_site1812] — higher, 7.28
